# Source: PMC4336329 (PLoS ONE, 2015)
# Among all 310,000 compounds or so, about 2,200 (0.71%) showed an effect of 50% or more. The effect is printed as a negative number. Some of the results follow.
# Target: human ether-à-go-go-related gene (hERG) potassium channel (human, UniProt Q12809)
# Test: primary screen, population patch clamp on CHO cells stably expressing hERG
# Sequence of human ether-à-go-go-related gene (hERG) potassium channel (Q12809 whole entry, looked up): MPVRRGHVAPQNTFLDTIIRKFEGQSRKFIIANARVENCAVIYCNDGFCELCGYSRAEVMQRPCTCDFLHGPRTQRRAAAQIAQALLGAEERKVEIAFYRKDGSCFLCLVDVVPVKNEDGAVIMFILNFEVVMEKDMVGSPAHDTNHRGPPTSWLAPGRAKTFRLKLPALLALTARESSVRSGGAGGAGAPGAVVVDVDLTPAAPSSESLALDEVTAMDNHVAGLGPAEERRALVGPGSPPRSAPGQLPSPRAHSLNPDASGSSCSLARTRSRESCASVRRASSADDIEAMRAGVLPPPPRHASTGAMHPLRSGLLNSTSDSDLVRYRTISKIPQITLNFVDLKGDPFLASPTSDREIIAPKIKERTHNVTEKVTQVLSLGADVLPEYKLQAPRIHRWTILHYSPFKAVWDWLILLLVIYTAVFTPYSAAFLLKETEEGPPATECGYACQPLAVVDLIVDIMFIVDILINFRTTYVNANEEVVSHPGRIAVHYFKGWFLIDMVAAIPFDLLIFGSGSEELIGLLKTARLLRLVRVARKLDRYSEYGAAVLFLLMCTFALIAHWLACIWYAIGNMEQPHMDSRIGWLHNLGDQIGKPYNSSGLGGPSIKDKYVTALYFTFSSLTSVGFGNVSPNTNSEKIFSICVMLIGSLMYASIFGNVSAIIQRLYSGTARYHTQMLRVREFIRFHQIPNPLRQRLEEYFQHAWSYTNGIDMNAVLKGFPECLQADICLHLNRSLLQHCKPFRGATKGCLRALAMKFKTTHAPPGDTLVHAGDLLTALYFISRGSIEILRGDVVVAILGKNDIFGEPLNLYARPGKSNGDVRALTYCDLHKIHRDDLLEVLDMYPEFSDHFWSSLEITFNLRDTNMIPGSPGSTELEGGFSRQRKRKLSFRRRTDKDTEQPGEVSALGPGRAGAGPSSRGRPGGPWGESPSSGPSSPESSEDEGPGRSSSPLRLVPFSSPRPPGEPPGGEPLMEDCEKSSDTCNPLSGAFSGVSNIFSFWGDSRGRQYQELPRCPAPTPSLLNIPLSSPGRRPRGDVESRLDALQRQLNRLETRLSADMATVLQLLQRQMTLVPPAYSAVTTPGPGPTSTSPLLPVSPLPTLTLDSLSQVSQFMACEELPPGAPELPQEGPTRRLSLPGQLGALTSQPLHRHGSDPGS
row,SMILES,"hERG current change (%, negative = inhibition) at 1uM"
1,C=CCOc1ccc(C2NC(=S)NC(c3ccccc3)=C2C(C)=O)cc1OC (stereo not drawn),-1.18%
2,COc1ccccc1C(=O)OCC(=O)NC(=O)NC1CCCC1,8.02%
3,CN(CC(=O)Nc1ccc(F)c(F)c1F)C(=O)/C=C/c1ccc(Cl)cc1,3.46%
4,COC(=O)Cn1c(=NC(=O)c2ccc([N+](=O)[O-])s2)sc2cc(Br)ccc21,14%
5,COc1cccc(CNS(=O)(=O)c2c(C(=O)N3CCCC3)c(C)n(C)c2C)c1,13.5%
6,COc1cc(C=C(c2nc3ccccc3s2)c2nc3ccccc3s2)cc(OC)c1O,2.07%
7,Cc1nn(C(C)C(=O)O)c(C)c1[N+](=O)[O-] (stereo not drawn),13.9%
8,O=C(Nc1cccc(Cl)c1)O/N=C\c1ccncc1,0.219%
9,CCCCN(CC)CCNC(=O)C1CCN(S(=O)(=O)c2cccc3nsnc23)CC1,1.54%
10,COC(=O)c1cnc(SC)nc1C,-3.4%
11,C=CCNC(=O)[C@@H]1CSC2c3ccc(OC)c(OC)c3C(=O)N21 (stereo partly drawn),15%
12,C/C=C/C(=O)Nc1cccc(C2=NOC3(C2)C[C@H](C(N)=O)N(C(=O)/C=C/C)C3)c1 (stereo partly drawn),7.97%
13,CCOC(=O)CSC1=Nc2ccccc2C2=NC(CC(=O)NCc3ccc4c(c3)OCO4)C(=O)N12 (stereo not drawn),-4.24%
14,O=C(Nc1ccncc1)c1cc(S(=O)(=O)N2CCN(c3ccccc3)CC2)ccc1Cl,-18.3%
15,CCOC(=O)c1cc(C(C)(C)C)oc1CN,14%
16,C=C(C)CNC(=S)N/N=C/c1c(F)cccc1F,4.81%
17,O=C(O)CCC(=O)Nc1ccc(-n2ccc(C(F)(F)F)n2)cc1,15.4%
18,CC(=O)c1ccc(NC(=O)C(C)OC(=O)CCN=C2NS(=O)(=O)c3ccccc32)cc1 (stereo not drawn),10.4%
19,O=C(CSc1nnc(Cc2cccs2)n1-c1ccccc1)NC1CCCCC1,-13.5%
20,O=C(NCCCN1CCOCC1)c1ccco1,13.8%
21,Cc1ccc(NC2CCCN(C(=O)CCc3ccncc3)C2)cc1C (stereo not drawn),-3.54%
22,Cc1nc(C)c(Cc2ccccc2Cl)c(=O)[nH]1,12%

row,SMILES,"hERG current change (%, negative = inhibition) at 1uM"
1,CCOC(=O)c1cnc(-n2nc(C)cc2C)nc1NNc1nc(-c2ccccc2)cc(-c2ccccc2)n1,-1.53%
2,CC(C)c1ccc(/C=N/n2c(-c3ccccc3)n[nH]c2=S)cc1,12.4%
3,CC(C)N(CCO)C(=O)CCc1nnc(CCCc2ccccc2)o1,13.6%
4,COc1ccccc1OCCCOc1c(C)cc(C)cc1Br,2.14%
5,C#CNC(=O)C1(CC=C)CCNCC1,8.61%
6,COc1cc(/C=N/NC2=NS(=O)(=O)c3ccccc32)ccc1OC(C)=O,12.6%
7,CCC(C(=O)NC1CCCCC1)N(Cc1cccs1)C(=O)CCC(=O)Nc1cc(C)on1 (stereo not drawn),8.63%
8,COc1ccc(C(=O)CC(=O)C(=O)Nc2cc(OC)c(OC)c(OC)c2)cc1,3.79%
9,O=C(CSc1nc2ccccc2c(=O)[nH]1)Nc1ccccc1N1CCOCC1,8.7%
10,CCOC(=O)c1ccc2c(c1)N(CC(=O)N1CCCCC1)C(=O)C(C)(C)O2,3.29%
11,CCCCn1c(N)c(N(CCOC)C(=O)c2ccc(COc3ccccc3)o2)c(=O)[nH]c1=O,5.39%
12,CCOC(=O)N1CCN(C(=O)c2ccc(Cn3c(=S)[nH]c4cc(OCC)c(OCC)cc4c3=O)cc2)CC1,7.5%
13,COc1ccc(Cn2nnc3c(=O)[nH]c(C(=O)NCCc4ccc(F)cc4)nc32)cc1OC,12.8%
14,CCSc1nnc(-c2ccc(S(=O)(=O)NCc3cccs3)cc2)o1,-6.04%
15,CC(C)c1cccc(OCCCCN(C)C)c1.O=C(O)C(=O)O,2.5%
16,COc1cc(OC)cc(-c2nc(-c3cccs3)no2)c1,11.8%
17,Cc1ccc(CC(=O)N2CCOCC2)cc1,6.52%
18,CCn1c(CCC(=O)Nc2cc(F)ccc2C)nc2cc(S(=O)(=O)N(C)C)ccc21,5.82%
19,Cc1cc(NC(=O)CSc2cn(CCNC(=O)c3ccccc3)c3ccccc23)no1,6.46%
20,COc1ccc(CCNC(=O)C2CCN(S(=O)(=O)c3cccc4nsnc34)CC2)cc1OC,1.53%
21,CCOC(=O)C1(CC2CCCCO2)CCN(C(=O)Nc2ccc(C)c(C)c2)CC1 (stereo not drawn),11.8%
22,CCOC(=O)Nc1sc(C(=O)N(CC)CC)c(C)c1C(=O)OCC,4.75%

row,SMILES,"hERG current change (%, negative = inhibition) at 1uM"
1,O=S(=O)(NC1CCCCC1N1CCOCC1)c1ccc(Cl)cc1 (stereo not drawn),8.63%
2,Cc1cccc(NC(=O)c2ccco2)c1C,17.6%
3,O=S(=O)(NCC(c1ccco1)N1CCc2ccccc2C1)c1ccc(F)cc1 (stereo not drawn),8.95%
4,COc1ccc(C2CC(=O)C3=C(C2)Nc2ccccc2N(C(=O)CCC(=O)O)C3c2ccc(F)cc2)cc1OC (stereo not drawn),12%
5,Cl.N=c1sccn1CC(=O)Nc1cccc(S(=O)(=O)N2CCCCCC2)c1,-10.7%
6,O=C1/C(=C\c2ccco2)NC(=S)N1c1ccccc1,17.6%
7,CCc1ccccc1NC(=O)c1cc(S(=O)(=O)N2CCCC2)c[nH]1,6.11%
8,CC(C)C(=O)Nc1ccc(Nc2ccccc2)cc1,-7.46%
9,O=C(On1c(-c2ccccc2)nc2ccccc2c1=O)c1ccco1,20.1%
10,O=S(=O)(NCc1ccccc1)c1ccc(-c2cnc(C3CC3)o2)cc1,12.1%
11,CCOC(=O)C1CCCN(C2=NC(=O)/C(=C/c3ccc(OC)cc3OC)S2)C1 (stereo not drawn),3.99%
12,COc1cccc(NC(=O)C(C)OC(=O)CCCNC(=O)c2ccc(Cl)cc2)c1 (stereo not drawn),10.7%
13,CCOc1ccc(/C(O)=C2/C(=O)C(=O)N(CCN(CC)CC)C2c2cccs2)cc1 (stereo not drawn),15.8%
14,CCCCC(=O)Nc1ccc(C(=O)Nc2ccc(OC)cc2[N+](=O)[O-])cc1,1.96%
15,C/C(=N\NC(=O)c1c(-c2ccccc2Cl)noc1C)c1cccc(NC(=O)C(C)C)c1,-2.65%
16,O=C(CSc1nnc(COc2ccccc2)n1Cc1ccco1)NCc1ccco1,10.7%
17,CC(C)(C)n1ncc2c(=O)n(CC(=O)OCc3ccccc3)cnc21,13.8%
18,CCN(CC)C(=O)CSc1ncnc2c1cnn2-c1ccccc1,4.56%
19,CCc1cc(C(=O)c2ccc(OC)cc2)c(NC(=O)CN2CCN(C)CC2)s1,-5.96%
20,O=C(Nc1ccccc1N1CCN(c2ccc(F)cc2)CC1)C12CC3CC(CC(C3)C1)C2,0.695%
21,O=C(CSc1nnc(-c2cccs2)o1)OC1CCCCC1,11.3%
22,O=C(CSc1nnc(-c2ccco2)n1Cc1ccccc1)c1ccccc1,8.89%

row,SMILES,"hERG current change (%, negative = inhibition) at 1uM"
1,Cc1nc(NC(=S)NC(=O)c2cccs2)sc1C(=O)N(C)C,1.34%
2,O=C(Nc1ccccc1Cl)C1CC(=O)N(c2ccccc2)C1 (stereo not drawn),11.9%
3,CCOc1c(Br)cc(C(=O)OCC(=O)N2CCc3ccccc3C2)cc1OC,-2.17%
4,O=C(NC1(C(F)(F)F)C(=O)Nc2c1c(=O)[nH]c(=O)n2-c1ccccc1)c1cccnc1 (stereo not drawn),19%
5,O=C(c1ccco1)N1CCn2cccc2C1c1ccccc1 (stereo not drawn),1.77%
6,O=C1CN(S(=O)(=O)c2cccc(C(=O)O)c2)c2ccccc2N1,11.3%
7,O=C(CN1CCCCCC1)Nc1ccc([N+](=O)[O-])cc1Cl,7.57%
8,COCc1[nH][nH]c(=O)c1/C=N/N1CCOCC1,7.34%
9,Nc1cc2sc(-c3ccc(C(=O)O)cc3)nc2cc1Cl,17.5%
10,CCOC(=O)C1CCCN(S(=O)(=O)c2ccc(-n3cnnn3)c(C)c2)C1 (stereo not drawn),2.97%
11,CC(C)C(=O)N1CCN(c2ccc(NC(=O)c3ccc4c(c3)OCCO4)cc2)CC1,12.2%
12,Cc1sc2ncnc(NC(C)C(=O)O)c2c1C (stereo not drawn),11.8%
13,O=C(CN1CC(c2ccccc2)CC1=O)N/N=C/c1cc(Br)ccc1O (stereo not drawn),-2.4%
14,C=CCn1c(=O)c(C(=O)NCc2ccc3c(c2)OCO3)c(O)c2ccccc21,17.6%
15,CC1CC(C)CN(S(=O)(=O)c2cccc(C(=O)N3C(=O)c4cccc(N)c4C3=O)c2)C1 (stereo not drawn),6.81%
16,COCCNC(=O)C(=O)NCCN1CCOCC1,11.6%
17,C=C1CCN([C@@H](CC(C)C)C(=O)NCc2ccc(Cl)c(Cl)c2)S(=O)(=O)c2ccccc21,14.9%
18,CC1(C)S[C@@H]2[C@H](NC(=O)COc3ccccc3)C(=O)N2C1C(=O)OCc1cc2ccccc2n1S(=O)(=O)c1ccccc1 (stereo partly drawn),3.86%
19,O=C(Oc1cc(=O)oc2c1c(=O)n1c3c(cccc23)CC1)c1ccc(F)cc1,4.95%
20,COc1cc(C2C3=C(CC(C)(C)CC3=O)NC3=C2C(=O)c2ccccc23)ccc1O (stereo not drawn),12.3%
21,Cc1cc(C)cc(N(CCC(=O)O)S(=O)(=O)c2ccc3ccccc3c2)c1,9.76%
